In PubChem BioAssay AID686979 (National Center for Advancing Translational Sciences (NCATS), 2013):
Values joined by “and” are separate entries in the source; they are usually repeats but may differ in a detail not shown here. Identical values can stand only once. The whole screen tested about 420,000 compounds, of which about 50,000 (12%) were called active. Inconclusive results, whose numbers are uncertain, are shown with a selection of clear calls. Calls follow the shape of the dose curve; as a rule, active = well fitted inhibition curve with a large enough effect; inconclusive = small, poorly fitted or top-dose-only effect; inactive = flat fitted curve, though single readings scatter. Where the call is inconclusive, the potency comes from a doubtful curve fit.

Assay: qHTS for Inhibitors of human tyrosyl-DNA phosphodiesterase 1 (TDP1): qHTS in cells in presence of CPT; also: nearly all actives have a fitted effect of over 55% in size
Details: chicken DT40 Tdp1-/-;hTDP1 cells + 20 nM CPT, ATP luminescence, 48 h; activity change, negative = growth inhibition: at 46.2 µM (top of the series)
Summary of the method: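 Chicken DT40 Tdp1-/- cells complemented with human TDP1, 400 cells/well, exposed to compounds plus 20 nM camptothecin for at least 48 h at 37 C; viability read as ATP content by CellTiter-Glo luminescence.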
% is scaled to controls: 0 for no effect and ±100 for the full control effect; potency is read from the fitted curve at half-maximal effect; tags tell the direction and shape of the fitted curve.

**Q.** For `CCCCCC(=O)NC(NC(=S)Nc1ccc(S(N)(=O)=O)cc1)C(Cl)(Cl)Cl` (centres undefined), which Potency is on record?
**A.** inactive

**Q.** For `COC(=O)c1sc2ncccc2c1OCc1ccc(Cl)cc1`, which Potency is on record?
**A.** inactive

**Q.** Which Potency does the source give for `Cc1cc(C)n(Cc2ccc(C(=O)Nc3ccc(Br)cc3C)o2)n1` here?
**A.** inactive

**Q.** Which Potency does the source give for `COc1ccc(C(CNC(=O)Nc2cccc(C)c2)N2CCN(C)CC2)cc1` (centres undefined) here?
**A.** inactive

**Q.** For `CC(CN1CCCCC1)OC(=O)c1ccc(Cl)cc1` (centres undefined), which Potency is on record?
**A.** inactive

**Q.** Which Potency does the source give for `CSCCC(NS(=O)(=O)c1ccc(C)cc1)C(=O)NC1CCCCC1` (centres undefined) here?
**A.** inactive

**Q.** For `COc1ccc(N(C(=O)c2snc(C(N)=O)c2N)C(C(=O)NCc2ccc(F)cc2)c2ccc(O)cc2)cc1` (centres undefined), which Potency is on record?
**A.** inconclusive: 29.1 µM [inhibitor, single point]

**Q.** With `O=C(c1ccc(Cl)cc1)N1CCc2ccccc21` as the compound, how does the Potency read?
**A.** inconclusive: 23.1 µM [inhibitor, single point]

**Q.** Which Potency does the source give for `CCOc1cccc(C(=O)Nc2ccc3oc(Cc4ccc(Cl)cc4)nc3c2)c1` here?
**A.** inconclusive: 29.1 µM [inhibitor, single point]

**Q.** For `CCn1c(SCC(=O)N2CCCCC2)nc(O)cc1=O`, which Potency is on record?
**A.** inactive

**Q.** Which Potency does the source give for `COc1ccc(N(CC(=O)Nc2ccc(S(=O)(=O)N3CCCCC3)cc2)S(C)(=O)=O)cc1OC` here?
**A.** inconclusive: 18.4 µM [inhibitor, partial curve]

**Q.** For `CC(OC(=O)Cc1c[nH]c2ccccc12)C(=O)NC1(C#N)CCCCC1` (centres undefined), which Potency is on record?
**A.** inactive

**Q.** Which Potency does the source give for `C/C(=N/NC(=O)c1nnn(-c2nonc2N)c1-c1ccccc1)c1ccc2c(c1)OCO2` here?
**A.** inactive

**Q.** With `N#Cc1ccc(C(=O)NCC(c2ccco2)N2CCCC2)cc1` (centres undefined) as the compound, how does the Potency read?
**A.** inactive

**Q.** With `COc1cc2c(cc1OC)CN(C(=O)CC1CC3CCC1C3)CC2` (centres undefined) as the compound, how does the Potency read?
**A.** inconclusive: 18.4 µM [inhibitor, partial curve, poor fit]

**Q.** Which Potency does the source give for `OC(c1ccccc1)(c1ccccc1)C1CCN(C(=S)NCCc2ccccc2)CC1` here?
**A.** inconclusive: 20.6 µM [inhibitor, single point]

**Q.** For `Cc1cnc(C(=O)N2CCN(S(=O)(=O)c3cccc(Br)c3)CC2)cn1`, which Potency is on record?
**A.** inactive

**Q.** With `Cc1cc(C)n2ncc(/C(N)=N/OC(=O)Nc3ccccc3)c2n1` as the compound, how does the Potency read?
**A.** inactive

**Q.** Which Potency does the source give for `CCCCCCSc1ccc(-c2nc3ccc(C)cn3c2NCCCC)cc1OC` here?
**A.** active: 11.6 µM

**Q.** With `CC(/C=N/NC(=O)c1nnn(-c2nonc2N)c1CN1CCCCC1)c1ccccc1` (centres undefined) as the compound, how does the activity change, negative = growth inhibition read?
**A.** inconclusive: -3.07% [inhibitor]

**Q.** Which Potency does the source give for `COc1cc(Nc2c3c(nc4ccccc24)CCC3)cc(OC)c1OC` here?
**A.** active: 1.84 µM

**Q.** With `Cc1cccc(C#Cc2ccccc2)n1` as the compound, how does the Potency read?
**A.** inactive and inconclusive: 4.47 µM [inhibitor, full curve]

**Q.** With `COc1ccc(/C=C2\CCCC3C2=NN(C(=O)COC(=O)CNC(=O)c2ccccc2)C3c2ccc(OC)cc2)cc1` (centres undefined) as the compound, how does the Potency read?
**A.** inconclusive: 23.1 µM [inhibitor, single point]

**Q.** With `CCN(CC)CC(=O)Nc1sc(C)cc1C(=O)c1ccccc1` as the compound, how does the Potency read?
**A.** inconclusive: 20.6 µM [inhibitor, single point]

**Q.** Which Potency does the source give for `CCOc1cc(C(=O)N2CCC(CC3CC(c4ccccc4)=NO3)(C(=O)NCc3ccc(OC)cc3)CC2)cc(OCC)c1OCC` (centres undefined) here?
**A.** inconclusive: 29.1 µM [inhibitor, single point]

**Q.** For `O=C(C1CC1)N1c2ccccc2Sc2ccccc21`, which Potency is on record?
**A.** inconclusive: 4.61 µM [inhibitor, single point]

**Q.** With `COc1ccc(-c2cc(C(F)(F)F)nc(SCCC(=O)NCc3ccco3)n2)cc1` as the compound, how does the Potency read?
**A.** inconclusive: 2.59 µM [inhibitor, partial curve, poor fit]

**Q.** For `CCOC1=C2[C@@H](CN(S(=O)(=O)c3ccccc3)[C@H]2c2ccccc2)[C@H]2C(=O)N(c3ccccc3)C(=O)[C@H]2C1`, which activity change, negative = growth inhibition is on record?
**A.** inconclusive: -31.1% [inhibitor]

**Q.** For `CCOC(=O)Nc1ccc2c(c1)N(C(=O)CCN(CC)CC)c1ccccc1S2=O` (centres undefined), which Potency is on record?
**A.** active: 2.59 µM

**Q.** With `Cc1ccc(NC(=O)COC(=O)C2CC2(Cl)Cl)cc1C` (centres undefined) as the compound, how does the Potency read?
**A.** inactive

**Q.** For `COc1cc(Oc2ccccc2)nc(N)n1`, which Potency is on record?
**A.** inactive

**Q.** Which Potency does the source give for `Cc1ccc(NC(=O)CSCC(=O)NC2(C)CCS(=O)(=O)C2)cc1` (centres undefined) here?
**A.** inactive

**Q.** With `COc1ccc(NC(=O)Cn2nnc3ccccc32)c([N+](=O)[O-])c1` as the compound, how does the activity change, negative = growth inhibition read?
**A.** inconclusive: -32.2% [inhibitor]

**Q.** Which Potency does the source give for `CC1CCc2c(C(=O)NCCCN3CCOCC3)csc2C1` (centres undefined) here?
**A.** inconclusive: 20.6 µM [inhibitor, single point]

**Q.** Which Potency does the source give for `Clc1nnc(N2CCCCC2)c2ccccc12` here?
**A.** inconclusive: 18.4 µM [inhibitor, single point]

**Q.** Which Potency does the source give for `Nc1ccn(C2OC(COP(=O)(O)O)C(O)C2O)c(=O)n1` (centres undefined) here?
**A.** active: 0.651 µM

**Q.** For `O=C(NCc1ccco1)c1ccc2c(c1)N(Cc1ccc(Cl)cc1)CCS2`, which Potency is on record?
**A.** inconclusive: 20.6 µM [inhibitor, single point]

**Q.** Which Potency does the source give for `CCCn1c(-c2ccncc2)n[nH]c1=S` here?
**A.** inactive

**Q.** With `N#Cc1cccc(Oc2ccc(S(=O)(=O)N3CCCC3)cn2)c1` as the compound, how does the Potency read?
**A.** inactive

**Q.** With `O=C(NCc1ccco1)c1ccc2nc([C@@H]3O[C@H](CO)[C@H](O)[C@H](O)[C@H]3O)[nH]c2c1` as the compound, how does the Potency read?
**A.** inactive

**Q.** For `CCc1nn2c(=O)cc(COc3ccc(/C=C(\C#N)C(=O)Nc4ccc(C)cc4)cc3)nc2s1`, which Potency is on record?
**A.** inactive

**Q.** With `COc1cccc(-n2c(=O)c3c(C)c(C(=O)N(C)C)sc3n(CC(=O)NCC3CCCO3)c2=O)c1` (centres undefined) as the compound, how does the Potency read?
**A.** inactive

**Q.** Which Potency does the source give for `CC1CCCC(NCC(O)COC(c2ccc(F)cc2)c2ccc(F)cc2)C1C` (centres undefined) here?
**A.** active: 5.17 µM

**Q.** With `COc1ccc(NS(=O)(=O)c2ccc(N3CCCCC3)c(N)c2)cc1` as the compound, how does the Potency read?
**A.** active: 2.59 µM

**Q.** For `Nc1nc(NCc2ccc(Cl)c(Cl)c2)c2[nH]cnc2n1`, which Potency is on record?
**A.** inconclusive: 25.1 µM [inhibitor, single point] and inconclusive: 12.6 µM [inhibitor, single point]

**Q.** For `Nc1c(C(=O)c2ccccc2)sc2snc(SCC(=O)c3ccccc3)c12`, which Potency is on record?
**A.** inconclusive: 23.1 µM [inhibitor, single point]

**Q.** With `Cc1ccc(SCc2[nH]nc3c2C2(C(=O)N(C)c4ccccc42)C(C#N)=C(N)O3)cc1` (centres undefined) as the compound, how does the Potency read?
**A.** inactive

**Q.** Which Potency does the source give for `CCOc1ccccc1NC(=O)CN1C(=O)C(=O)N(Cc2ccco2)C1=O` here?
**A.** inactive

**Q.** Which Potency does the source give for `O=C(CN1C(=O)C2CCCCN2c2ccc(C(=O)N3CCCC3)cc21)NCc1cccc(F)c1` (centres undefined) here?
**A.** inactive
